Measured values published in PubChem BioAssay AID1347165 (National Center for Advancing Translational Sciences (NCATS), 2019).
The campaign covered roughly 220,000 compounds. About 5,700 (2.6%) were called active. This list was built around the results that the source calls inconclusive (neither active nor inactive); the mix of calls is not that of the screen. The call rests on the fitted dose curve; in most records, active means well fitted inhibition curve with a large enough effect; inconclusive means small, poorly fitted or top-dose-only effect; inactive means no such curve, though single readings can be large or run the other way. Potencies beside an inconclusive call are fits to weak or partial responses and may not hold up.

Target: Lysine-specific demethylase 5B (Homo sapiens) (UniProt Q9UGL1)
Chain of UniProt Q9UGL1 (Q9UGL1 whole entry, looked up): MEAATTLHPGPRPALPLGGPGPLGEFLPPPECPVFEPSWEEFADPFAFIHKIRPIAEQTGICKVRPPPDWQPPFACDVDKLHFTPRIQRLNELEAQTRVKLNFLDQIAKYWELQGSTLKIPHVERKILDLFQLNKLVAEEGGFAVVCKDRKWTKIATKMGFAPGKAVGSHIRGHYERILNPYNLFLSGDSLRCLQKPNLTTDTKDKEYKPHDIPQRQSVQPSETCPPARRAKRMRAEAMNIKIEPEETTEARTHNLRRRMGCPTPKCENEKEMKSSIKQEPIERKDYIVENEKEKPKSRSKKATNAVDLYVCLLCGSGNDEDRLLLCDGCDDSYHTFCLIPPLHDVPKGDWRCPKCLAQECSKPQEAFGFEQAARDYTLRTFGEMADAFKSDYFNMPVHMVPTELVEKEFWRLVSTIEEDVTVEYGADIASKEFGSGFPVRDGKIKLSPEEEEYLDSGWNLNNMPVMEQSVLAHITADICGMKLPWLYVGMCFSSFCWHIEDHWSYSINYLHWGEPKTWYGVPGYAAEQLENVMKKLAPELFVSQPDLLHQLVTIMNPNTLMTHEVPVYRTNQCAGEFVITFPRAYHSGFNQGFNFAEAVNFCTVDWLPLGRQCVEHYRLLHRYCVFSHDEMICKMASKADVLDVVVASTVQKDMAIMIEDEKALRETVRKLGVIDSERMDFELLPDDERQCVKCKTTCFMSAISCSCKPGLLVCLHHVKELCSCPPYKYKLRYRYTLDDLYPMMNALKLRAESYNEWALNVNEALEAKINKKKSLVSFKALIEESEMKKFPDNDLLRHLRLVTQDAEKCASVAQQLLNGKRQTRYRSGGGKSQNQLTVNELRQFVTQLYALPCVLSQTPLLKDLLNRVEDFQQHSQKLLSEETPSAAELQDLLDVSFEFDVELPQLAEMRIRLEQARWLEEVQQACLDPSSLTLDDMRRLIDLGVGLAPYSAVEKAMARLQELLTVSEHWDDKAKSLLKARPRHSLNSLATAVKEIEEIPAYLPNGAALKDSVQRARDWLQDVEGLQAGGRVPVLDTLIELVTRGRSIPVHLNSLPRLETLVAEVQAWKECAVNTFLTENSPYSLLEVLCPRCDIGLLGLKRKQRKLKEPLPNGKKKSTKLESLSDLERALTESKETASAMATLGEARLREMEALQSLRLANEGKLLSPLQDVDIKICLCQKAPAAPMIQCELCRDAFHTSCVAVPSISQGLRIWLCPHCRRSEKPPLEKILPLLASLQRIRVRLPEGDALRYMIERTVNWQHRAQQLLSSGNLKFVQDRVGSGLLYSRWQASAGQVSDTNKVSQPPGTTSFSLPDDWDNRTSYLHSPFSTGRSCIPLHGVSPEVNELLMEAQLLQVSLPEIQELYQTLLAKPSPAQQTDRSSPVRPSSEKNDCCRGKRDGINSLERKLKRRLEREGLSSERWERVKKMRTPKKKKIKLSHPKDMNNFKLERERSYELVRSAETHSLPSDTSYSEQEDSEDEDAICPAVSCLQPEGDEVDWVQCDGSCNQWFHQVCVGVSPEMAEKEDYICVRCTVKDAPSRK
Test: Primary screen for KDM5B Histone Demethylases FDH-coupled qHTS; further: nearly all actives have a fitted effect of over 70% in size; on activity change, negative = inhibition: 0% is about no effect
Settings: FDH-coupled NADH fluorescence (FDH is formaldehyde dehydrogenase); activity change, negative = inhibition: at 57.7 µM (top of the series) unless noted
How it was run: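 Measured: NADH fluorescence change, 30 min, RT. System: KDM5BΔAP 200 nM final, H3K4me3 peptide, α-KG, Fe(II), ascorbate, NAD⁺ plus FDH, pH 7.5 HEPES. Compounds: titrated, 10 min pre-incubation with enzyme.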
Potency means the concentration at half of the fitted maximal effect; tags describe the fitted curve by direction and shape.

Structure (SMILES) | Potency | activity change, negative = inhibition
c1cncc(-c2nc(Oc3cccc4ccccc34)c3ccccc3n2)c1 | inactive | –
COc1ccc2c(CNCC(C)c3ccccc3)c(C(=O)O)n(Cc3ccc(F)cc3Cl)c2c1 (stereo not drawn) | inconclusive: 1.41 µM [inhibitor, partial curve, poor fit] | –
CNC(=O)[C@@H](c1ccc(Cl)cc1)N1CCC[C@H]1C(=O)N1CCCC1 | inconclusive: 20 µM [inhibitor, partial curve] | –
CCc1nc2ccccc2c(NC(=O)CN(C)C)c1C | inconclusive: 28.2 µM [inhibitor, partial curve, poor fit] | –
O=C1CS(=O)(=O)C2(C(=O)N(Cc3cccc(F)c3)c3ccccc32)N1c1ccccc1 (stereo not drawn) | inconclusive: 14.1 µM [inhibitor, partial curve, poor fit] | –
CC(=O)O/N=C/c1c(NCc2ccccc2)nc2c(C)cccn2c1=O | inconclusive: 28.2 µM [inhibitor, partial curve, poor fit] | –
O=C(c1ccccn1)N1CCCn2cc(-c3ccccc3)nc21 | inconclusive: 7.94 µM [inhibitor, partial curve] | –
O=C(O)CCn1ncc2cc(OCC3CCN(C(=O)OC4CCCC4)CC3)ccc21 | inconclusive: 50.1 µM [inhibitor, single point] | –
Cc1cccc(OCCCC(=O)Nc2sc3c(c2C(N)=O)CCC(C)C3)c1 (stereo not drawn) | inconclusive: 17.8 µM [inhibitor, partial curve, poor fit] | –
O=C(C1CCCN(c2nc3ncccc3o2)C1)N1CCN(c2ncccn2)CC1 (stereo not drawn) | active: 25.1 µM | –
COC(=O)c1ccc(Cl)cc1NC(=O)N1CC=C(c2c[nH]c3ccccc23)CC1 | inconclusive: 28.2 µM [inhibitor, partial curve, poor fit] | –
COC(=O)C(NC(=O)C(Cc1ccc(OCc2ccccc2)cc1)NC(=O)C(CC(C)C)NC(=O)OC(C)(C)C)C(C)O (stereo not drawn) | inactive | –
CC(=O)c1ccc(N2CCN(Cc3nc(-c4cccs4)no3)CC2)c(F)c1 | inactive | –
CCCn1c(-c2cc(OC)c(OC)c(OC)c2)nc2c1c(=O)[nH]c(=O)n2Cc1ccccc1 | inconclusive: 35.5 µM [inhibitor, partial curve, poor fit] | –
COc1ccc(OC)c(NC2=C(c3ccccc3)C(=O)c3ccccc32)c1 | inconclusive: 17.8 µM [inhibitor, single point] | –
COc1ccc(N2CCN(C(=O)c3cc4c(-c5ccccc5F)nn(C)c4s3)CC2)cc1 | inconclusive: 35.5 µM [inhibitor, single point] | –
COc1cc(N2C(=O)C=CC2=O)c(OC)cc1Cl | inconclusive: 2.82 µM [inhibitor, full curve, poor fit] | –
CC(C)(C)c1cc(Sc2c(Cl)c(Cl)nc(Cl)c2Cl)cc(C(C)(C)C)c1O | inactive | –
CC1CCN(S(=O)(=O)c2ccc3c(c2)N(CC(=O)NCc2ccccc2)C(=O)CO3)CC1 | – | inconclusive: -32.2% [inhibitor]
O=C(O)Cn1ccc2cc(OCC3CCN(C(=O)COc4ccccc4)CC3)cnc21 | active: 35.5 µM | –
O=C(NC1CCCC1)c1cc2cn(C3CC3)cc2s1 | inconclusive: 15.8 µM [inhibitor, partial curve, poor fit] | –
COc1ccc2c(c1)C(NC(=O)c1cn(CCN)nn1)CC(C)(C)O2 (stereo not drawn) | inactive | –
CCOC(=O)c1cc(NCc2ccc(CC)cc2)ccc1N1CCOCC1 | inconclusive: 39.8 µM [inhibitor, single point] | –

Structure (SMILES) | Potency | activity change, negative = inhibition
COc1ccc(-c2ncc3c(n2)OCCN(c2ccccc2)C3=O)cc1F | active: 28.2 µM | –
CCN(Cc1ccc(C(=O)NC)cc1)Cc1ccco1 | inactive | –
Cc1nn(CC(=O)NCc2ccco2)c(=O)c2cc3ccccc3n12 | inactive | –
O=C(O)C(F)(F)c1ccc(F)cc1 | inactive | –
CC(C)c1ccc(C(=O)N[C@H](C2CCNCC2)C2CC(O)C2)c(=O)n1C (stereo partly drawn) | active: 25.1 µM | –
c1ccc(Oc2cccc3cccnc23)nc1 | inconclusive: 39.8 µM [inhibitor, single point] | –
O=c1cc(-c2ccccn2)oc2c(-c3ccccc3F)nccc12 | active: 17.8 µM | –
CN(Cc1cccc(OC(F)(F)F)c1)C(=O)C1(c2ccc(Cl)cc2)CCOCC1 | inconclusive: 50.1 µM [inhibitor, partial curve, poor fit] | –
Cc1ccccc1Nc1sc(C(=O)c2ccc3c(c2)OCO3)c(N)c1S(=O)(=O)c1ccccc1 | inconclusive: 14.1 µM [inhibitor, partial curve, poor fit] | –
Cc1ccc(-c2nc(C(=O)NCc3ccc(Cl)cc3)c3n2CCCCC3)cc1 | inconclusive: 25.1 µM [inhibitor, single point] | –
COc1ccc(C(=O)N[C@@H]2CCC[C@@H]2C(=O)NCCCN2CCCc3ccccc32)cc1 | inconclusive: 28.2 µM [inhibitor, single point] | –
Cc1ccccc1CNC(=O)c1ccc(NC(=O)c2nsc3ccccc23)cc1 | inconclusive: 39.8 µM [inhibitor, single point] | –
CSc1ccc(CN(C)CC(=O)NC(=O)NCc2ccccc2)cc1 | inactive | –
CC(C)(C)C(=O)NC(NC(=O)C(C)(C)C)c1ccc(F)cc1 | inactive | –
CCn1c(=O)cc(SCC(=O)Nc2ccc(C)c(F)c2)c2ccccc21 | inconclusive: 25.1 µM [inhibitor, single point] | –
CC(C)C(=O)Oc1ccc2c(=O)c(-c3ccc(Cl)cc3)coc2c1 | inactive | –
CC(C)(C)C(=O)COC(=O)c1cc(-c2cccs2)nc2ccccc12 | inconclusive: 22.4 µM [inhibitor, partial curve, poor fit] | –
CCOc1ccccc1C(=O)N1CCCN(C)c2ccccc21 | inactive | –
CCOCC(=O)N1C[C@@H](Oc2ccccc2)C[C@H]1C(=O)N1CCCC1 | inactive | –
CN(Cc1ccccc1F)C(=O)c1sccc1-c1ccccc1 | inactive | –
CC(C)(C)n1cc(-c2cc(C(=O)N3C[C@H]4CC[C@H]3C4)c3ccccc3n2)cn1 | active: 31.6 µM | –
COC(=O)[C@@H]1Cc2ncn(Cc3ccccc3)c2CN1S(=O)(=O)c1cccc(C(F)(F)F)c1 | inactive | –
O=C(C1CCC1)N1CCN(c2nnc3ccc(Cl)cn23)CC1 | inconclusive: 14.1 µM [inhibitor, partial curve, poor fit] | –

Structure (SMILES) | Potency | activity change, negative = inhibition
COc1ccc(CNc2oc(COc3cccc(Cl)c3)nc2C#N)cc1 | inactive | –
c1ccc(CNc2nc(Nc3ccccc3)nc3ccccc23)cc1 | inconclusive: 28.2 µM [inhibitor, partial curve, poor fit] | –
CCOC(=O)C1CCCN(C(=O)Cn2ncc3c([nH]c4ccccc43)c2=O)C1 (stereo not drawn) | inconclusive: 39.8 µM [inhibitor, single point] | –
CCN1CCCCC12Cc1ccccc1CN(C(=O)c1c(C)noc1C)C2 (stereo not drawn) | inconclusive: 56.2 µM [inhibitor, partial curve, poor fit] | –
O=C(/C=C/c1ccco1)OCC(=O)C12CC3CC(CC(C3)C1)C2 | inconclusive: 28.2 µM [inhibitor, single point] | –
O=C1NC2(CCCN(Cc3ccc(C(F)(F)F)cc3)C2)Oc2ccccc21 (stereo not drawn) | inactive | –
CN(c1cc(=O)c2ccnc(N3CCOCC3)c2o1)C1CCOCC1 | inconclusive: 28.2 µM [inhibitor, single point] | –
O=C(NCCc1nnc2ccc(NCc3ccc(F)cc3)nn12)c1ccccc1 | inconclusive: 35.5 µM [inhibitor, single point] | –
Cc1[nH]n2c(=O)cc(-c3ccccc3Cl)nc2c1-c1ccccc1 | inconclusive: 25.1 µM [inhibitor, partial curve, poor fit] | –
CCOc1ccccc1CN1CCC2(CCN(Cc3ccc(F)cc3)CC2)Oc2ccccc21 | inconclusive: 25.1 µM [inhibitor, single point] | –
COc1cc(OC)cc(C(=O)Nc2ccc3c(c2)CN(Cc2ccc(F)cc2)C(=O)C(C)O3)c1 (stereo not drawn) | inconclusive: 39.8 µM [inhibitor, single point] | –
COc1ccc(-c2ccnc(-c3nnc(C)n3Cc3cccnc3)c2)cc1OC | inconclusive: 28.2 µM [inhibitor, partial curve, poor fit] | –
CCCN(c1ccc(OCC)cc1)c1nc(C(=O)OCC)nc2ccccc12 | inconclusive: 14.1 µM [inhibitor, single point] | –
O=C(Nc1ccc(N2CCOCC2)cc1)c1cnccn1 | inactive | –
NC(=S)N/N=C/c1ccc(C2C=CCC2)s1 (stereo not drawn) | inconclusive: 22.4 µM [inhibitor, partial curve, poor fit] | –
O=c1cc(CN2CCCCC2c2ccccn2)[nH]c2ccc(F)cc12 (stereo not drawn) | inconclusive: 20 µM [inhibitor, partial curve, poor fit] | –
O=C(Nc1cccc(S(=O)(=O)NC2=NCCC2)c1)C1(c2cccc(Cl)c2)CC1 | inactive | –
COc1ccc(OC)c2c1CC(C)(C)n1c(-c3ccccc3)nnc1-2 | inconclusive: 8.91 µM [inhibitor, partial curve, poor fit] | –
CCc1c(C)nc2n(c1=O)CN(CCCN(C)C)CN2c1ccccc1OC | inactive | –
Cc1ccccc1C(=O)Oc1ccc2c(=O)c(-c3ccccc3)coc2c1 | inactive | –
Cc1cc(-c2onc3ccc(Cl)cc23)ccc1O | inconclusive: 20 µM [inhibitor, partial curve, poor fit] | –
CC(C)NC(=O)N[C@H]1C[C@H]2C(=O)NC[C@@H](CCC(=O)N3CCc4ccccc43)N2C1 | inconclusive: 39.8 µM [inhibitor, partial curve, poor fit] | –
